Publication PMC4336329 (PLoS ONE, 2015)
About 14,000 (4.5%) of roughly 310,000 compounds showed an effect of 50% or more. Effects have a minus sign here. This is one part of the list.

molecular target: human ether-à-go-go-related gene (hERG) potassium channel (human, UniProt Q12809); assay: primary screen, population patch clamp on CHO cells stably expressing hERG
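Further: peak tail current of the secondary pulse compared with the same well before compound.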

Chain of human ether-à-go-go-related gene (hERG) potassium channel (Q12809 whole entry, looked up): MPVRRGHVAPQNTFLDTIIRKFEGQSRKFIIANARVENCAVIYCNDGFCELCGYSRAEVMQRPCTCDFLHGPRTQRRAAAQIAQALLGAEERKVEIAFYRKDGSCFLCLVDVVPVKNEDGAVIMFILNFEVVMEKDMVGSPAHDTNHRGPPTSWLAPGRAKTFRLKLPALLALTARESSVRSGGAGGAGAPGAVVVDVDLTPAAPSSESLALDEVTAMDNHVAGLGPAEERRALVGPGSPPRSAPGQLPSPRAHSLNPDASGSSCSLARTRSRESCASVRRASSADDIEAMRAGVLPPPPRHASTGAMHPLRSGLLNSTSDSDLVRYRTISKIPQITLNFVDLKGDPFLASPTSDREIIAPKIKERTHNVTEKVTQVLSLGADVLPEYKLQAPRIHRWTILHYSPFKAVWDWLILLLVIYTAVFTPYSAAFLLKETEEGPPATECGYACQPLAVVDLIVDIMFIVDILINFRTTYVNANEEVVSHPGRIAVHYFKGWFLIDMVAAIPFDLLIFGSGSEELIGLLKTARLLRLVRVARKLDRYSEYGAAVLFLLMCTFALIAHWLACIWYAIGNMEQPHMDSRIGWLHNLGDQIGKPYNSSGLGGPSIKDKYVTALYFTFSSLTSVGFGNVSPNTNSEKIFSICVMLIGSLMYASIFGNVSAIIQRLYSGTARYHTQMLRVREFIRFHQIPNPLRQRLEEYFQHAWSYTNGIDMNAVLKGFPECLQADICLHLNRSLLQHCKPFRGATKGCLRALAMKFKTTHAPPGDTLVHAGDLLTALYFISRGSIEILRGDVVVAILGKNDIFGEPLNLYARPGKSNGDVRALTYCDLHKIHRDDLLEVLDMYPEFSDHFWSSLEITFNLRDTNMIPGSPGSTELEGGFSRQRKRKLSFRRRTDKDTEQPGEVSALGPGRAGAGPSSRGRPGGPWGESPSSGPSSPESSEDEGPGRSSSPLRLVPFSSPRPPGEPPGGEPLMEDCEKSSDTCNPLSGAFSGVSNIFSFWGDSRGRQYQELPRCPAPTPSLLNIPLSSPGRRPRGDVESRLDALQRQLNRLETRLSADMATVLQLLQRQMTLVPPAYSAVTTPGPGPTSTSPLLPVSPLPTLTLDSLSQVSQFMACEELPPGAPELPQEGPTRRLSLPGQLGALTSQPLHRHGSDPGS

SMILES	hERG current change (%, negative = inhibition) at 10uM [%]
CC1(C)C2CC=C(/C=N/NC(=S)NCCc3ccccc3)C1C2 (centres unmarked)	29.1
CCC(=O)Nc1ccc(NC(=O)c2ccccc2Cl)nc1	9.2
O=C(NCC(c1ccco1)N1CCN(c2ccccc2)CC1)c1ccc2c(c1)OCO2 (centres unmarked)	-5.86
CC1CN(C2=NC(=O)/C(=C/c3ccncc3)S2)CC(C)O1 (centres unmarked)	-14.5
COc1ccc(CCNC(=O)c2ccc(Cl)cc2Cl)cc1OC	2.49
O=C(CCS(=O)(=O)c1ccc(Br)s1)Nc1ccccc1Br	15.3
O=C(Nc1ccccc1)Nc1ccc2nnsc2c1	1.79
CCOC(=O)CC1C(=O)NCCN1C(=O)c1cccc(C(F)(F)F)c1 (centres unmarked)	11.4
COc1ccc(NC(=O)CN2CCC(C)CC2)cc1	-4.51
Cc1cc(S(=O)(=O)N2CCN(C(=O)CCC(=O)N3CCOCC3)CC2)ccc1Br	-6.63
CCc1cccc2c(=O)c(C(=O)NCCN3CCOCC3)c[nH]c12	12.3
Cc1ccc(OCc2nc(-c3ccccc3)no2)c(C)c1	8.51
O=C(CN1C2CCCC1CC(NC(=O)c1ccco1)C2)Nc1ccccc1C(F)(F)F (centres unmarked)	-5.35
Cc1ccc2c(c1)c1c(n2C)C(C(N)=O)CCC1 (centres unmarked)	-19.5
CCOC(=O)CCn1c(=O)c2c(nc(Br)n2Cc2ccccc2)n(C)c1=O	-11.5
CC12CN3CC(C)(CN(C1)C3c1ccco1)C2=O (centres unmarked)	-7.98
CCc1c(O)nc(SCC(=O)NC(C)(C)C)n(-c2ccccc2)c1=O	0.418
Cc1nn(CC(=O)Nc2cccnc2)c(C)c1[N+](=O)[O-]	13.9
NS(=O)(=O)c1ccc(CCNC(=O)c2ccccc2OCc2ccc(F)cc2)cc1	4.16
CC1(C(=O)Nc2nccs2)Cc2ccccc2C(=O)O1 (centres unmarked)	-7.82
O=C(NCc1ccccc1)c1cccc(COc2cc(Cl)ccc2Cl)c1	6.82
Cc1[nH]c(N=Nc2ccccc2)nc1N=Nc1ccccc1	16

SMILES	hERG current change (%, negative = inhibition) at 10uM [%]
CCN(C(=O)COC(=O)c1ccc(Br)o1)C1CCCCC1	2.17
C/C(=N/NC(=O)c1nnn(-c2nonc2N)c1-c1ccccc1)c1ccc2c(c1)OCO2	5.6
CS(=O)(=O)Nc1ccc(S(=O)(=O)N2CCOCC2)cc1	3.15
CCCCN(CC)C(=O)CN(C)S(=O)(=O)c1cccc2nsnc12	2.73
CCOCCCNC(=O)C1CCN(C(=O)Nc2ccc(C)cc2)CC1	-3.65
COc1ccc(Cl)cc1N(CC(=O)N1CCCCC1)S(C)(=O)=O	12.1
O=C(Cn1c(=O)oc2cc(S(=O)(=O)N3CCCCC3)ccc21)N1CCCCC1	10.4
N#Cc1c(C(F)(F)F)cc(=O)[nH]c1SCC(=O)O	9.28
C=CCn1c(SCC(=O)OC)nc2sc3c(c2c1=O)CCN(C)C3	-7.94
CC(C)Cc1nnc(NC(=O)CCC(=O)NCCc2ccccc2)s1	-16
COc1ccc(N(C(=O)Cn2nnc(-c3ccccc3F)n2)C(C(=O)NCC2CCCO2)c2ccc(Cl)cc2)cc1 (centres unmarked)	22.6
N#Cc1nc(-c2cccs2)oc1NCc1ccccc1	-1.31
CSc1ccccc1C(=O)N1CCCC(CCC(=O)NCc2ccc(F)c(F)c2)C1 (centres unmarked)	-6.23
CCCCSC(=O)Nc1ccccc1	-0.628
CC1CC(C)CN(C(=O)C2CCCN(S(=O)(=O)c3cnc[nH]3)C2)C1 (centres unmarked)	7.94
CC1CN(C(=O)c2ccc(NS(=O)(=O)c3ccc(F)cc3)cc2)CC(C)O1 (centres unmarked)	3.67
O=C(Nc1sc2c(c1C(=O)O)CCC2)c1ccccc1Cl	27.4
CCOc1ccccc1C(=O)N[C@H](C(=O)Nc1ccc(OC)c(S(=O)(=O)N2CCOCC2)c1)C(C)C	1.48
Cc1nc(SCCOc2ccccc2F)[nH]c(=O)c1Cc1ccccc1	46.9
CSc1ccc2c(c1)C(N1CCN(C)CC1)Cc1ccc(F)cc1S2.O=C(O)/C=C\C(=O)O (centres unmarked)	-58.8
CCOC(=O)CC1=C(C(=O)OCC)C(c2cc(OC)c(OC)cc2OC)C(C#N)=C(N)O1 (centres unmarked)	-0.565
O=C(Nc1ccc2oc(-c3ccccc3Cl)nc2c1)c1ncn[nH]1	15.5

SMILES	hERG current change (%, negative = inhibition) at 10uM [%]
O=C(Nc1cc(=O)[nH]c2ncnn12)c1ccco1	3.77
Cc1cccc(C)c1OCCN1CCCC1	0.402
COC(=O)[C@]1(CC(C)C)N[C@H](c2ccc(-c3ccc(Cl)c(Cl)c3)cc2)[C@@H]2C(=O)N(C)C(=O)[C@@H]21.O=C(O)C(F)(F)F	5.2
CCN1CCCC1CNCc1ccc(OCc2ccc(Cl)nc2)c(OC)c1.Cl (centres unmarked)	-39.1
O=C(C1Cc2ccccc2CN1S(=O)(=O)c1cccs1)N1CCCCC1 (centres unmarked)	-13.4
COc1ccc(OC)c(NC(=O)CC2C(=O)NCCN2C(=O)Nc2cccc(Cl)c2)c1 (centres unmarked)	3.42
Cc1ccc(S(=O)(=O)N(C)CC(=O)OCC(=O)N2CCCC2=O)cc1	4.5
COc1cccc(NC(=O)c2nnn(CC(=O)Nc3cc(C)cc(C)c3)c2N)c1	13.5
CCOCC(=O)Nc1nnc(C)s1	13
O=C(O)CCCC(=O)N1N=C(c2ccccc2)CC1c1cccs1 (centres unmarked)	-0.778
Cc1ccc(S(=O)(=O)N/N=C\c2ccc(C)o2)cc1	3.51
O=C(Cn1c2c(c(=O)n3ncnc13)CCC2)N/N=C/c1ccc(Cl)cc1	-21.4
CCCCCN(C(=O)CCC(=O)OCC(=O)NCc1cccc(OC)c1)c1c(N)n(CCCC)c(=O)[nH]c1=O	-0.375
CCN1C(=O)c2ccccc2Sc2ccc(C(=O)NCCCN3CCCCC3)cc21	-44.3
CC(NC(=O)c1ccc(N(C)C)c([N+](=O)[O-])c1)c1ccc(-n2ccnc2)cc1 (centres unmarked)	-62.9
Cc1ccc(Cn2c(C(C)Nc3nc(-c4ccc(Cl)c([N+](=O)[O-])c4)cs3)nc3cc(C(F)(F)F)ccc32)cc1 (centres unmarked)	5.46
COC(=O)c1cccc(NC(=O)c2cc(OC)c(OC)c(OC)c2Br)c1	8.4
Cc1ccnc(NC(=O)c2cc3c(=O)oc4ccc(C)cc4c3s2)c1	11.1
COc1ccc(/C=N/n2c(C)cc(C)c(C(N)=O)c2=O)cc1	12.2
CC(=O)c1ccc(NC(=O)C2(c3ccccc3)CCOCC2)cc1	-0.205
CCCOc1ccc(C(=O)NCCc2ccccc2)cc1	-27.8
COc1ccc(C(CC(=O)N2CCCCC2)c2c(OC)cc(OC)c3ccc(=O)oc23)cc1 (centres unmarked)	4.39

SMILES	hERG current change (%, negative = inhibition) at 10uM [%]
CCOc1ccc(S(=O)(=O)N(CC(=O)N/N=C/c2ccc(-c3ccc([N+](=O)[O-])cc3)o2)c2ccccc2)cc1	0.347
NC(=O)c1ccc(NC(=O)CNCc2ccccc2Cl)cc1	8.82
O=C(NCc1ccc2c(c1)OCO2)c1nnc(Cc2ccc(Cl)cc2)o1	10.5
COc1cc(/C=C/C(=O)NC(=O)c2ccccc2O)ccc1O	3.33
CC(/C=N/NC(=O)Cn1cnc2ccccc21)=C\c1ccccc1	7.61
Cc1ccc(Cc2nnc(SCC(=O)Nc3ccc(C)cc3C)[nH]c2=O)cc1	5.33
COc1ccc2nc(/N=C/c3c(O)n(-c4cccc(Cl)c4)c(=O)[nH]c3=O)sc2c1	2.53
CCOc1ccccc1NC(=O)CSc1nc2ccccc2c(=O)n1CC1CCCO1 (centres unmarked)	-68
CCCCC(Sc1nc(N)c(NC(=O)c2ccc(OCC)cc2)c(=O)[nH]1)C(=O)O (centres unmarked)	10.5
O=C(Cn1nc(-c2ccccc2Cl)ccc1=O)Nc1ccccc1-c1ccccc1	-22.2
C/C(=N\NC(=O)CNC(=O)c1ccc(Br)cc1)c1ccco1	5.38
Cc1cc(C)n(-c2nnc3n2N=C(c2c[nH]c4ccccc24)CS3)n1	2.71
COc1ccc(/C=C2\N=C(SC)N(c3ccccc3OC)C2=O)cc1	-4.47
CCOc1cc(/C=C2/SC(=S)N(C)C2=O)ccc1Oc1ccc([N+](=O)[O-])cc1[N+](=O)[O-]	15
Cc1sc(/C=C2\C(=O)ON=C2c2ccccc2)cc1Br	14.8
CCN(CC)S(=O)(=O)c1cc(Br)c(C)cc1OC	-27.4
O=C(O)c1cn(C2CC2)c2cc(N3CCN(S(=O)(=O)c4ccc5c(c4)OCCO5)CC3)c(F)cc2c1=O	15.8
O=C(Nc1csc([N+](=O)[O-])c1)Nc1c(Cl)cccc1Cl	5.87
O=C(NC(=S)Nc1ccc(S(=O)(=O)N2CCOCC2)cc1)c1ccccc1[N+](=O)[O-]	15.8
CCCCCCc1cc2cc(C(=O)Nc3ccc(OC)cc3)c(=O)oc2cc1O	5.95
